# Reference: paper PMC4336329 (PLoS ONE, 2015)
# The whole screen tested about 310,000 compounds, of which about 14,000 (4.5%) showed an effect of 50% or more. Effects have a minus sign here. The list shows a part of the results.
# Molecular target: human ether-à-go-go-related gene (hERG) potassium channel (human, UniProt Q12809)
# Assay: primary screen, population patch clamp on CHO cells stably expressing hERG
# Description: Briefly, Chinese hamster ovary (CHO) cells stably expressing the hERG channel were dislodged from tissue culture flasks and dispensed into PPC plates. […] During the recording, background leak currents were estimated by a 100 ms step to -80 mV from an initial holding potential of -70 mV and subtracted from the subsequent current measurement. The campaign was conducted in two phases using slight differences in recording protocol. In the first phase, the initial voltage pulse used a 100 ms step to -30 mV from a holding potential of -70 mV, a 2 s conditioning step to +25 mV, and a 2 s test step to -30 mV. During the second phase of the screen, the potential during the conditioning step was raised to +45 mV. In both phases of the campaign, a secondary voltage pulse was applied using the same parameters as the second phase initial pulse. The initial and secondary pulses were applied in the absence of compound, and upon application of 1 μM and 10 μM test concentrations. […]
# 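Further: peak tail current of the secondary pulse compared with the same well before compound.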
# human ether-à-go-go-related gene (hERG) potassium channel, sequence (Q12809 whole entry, looked up): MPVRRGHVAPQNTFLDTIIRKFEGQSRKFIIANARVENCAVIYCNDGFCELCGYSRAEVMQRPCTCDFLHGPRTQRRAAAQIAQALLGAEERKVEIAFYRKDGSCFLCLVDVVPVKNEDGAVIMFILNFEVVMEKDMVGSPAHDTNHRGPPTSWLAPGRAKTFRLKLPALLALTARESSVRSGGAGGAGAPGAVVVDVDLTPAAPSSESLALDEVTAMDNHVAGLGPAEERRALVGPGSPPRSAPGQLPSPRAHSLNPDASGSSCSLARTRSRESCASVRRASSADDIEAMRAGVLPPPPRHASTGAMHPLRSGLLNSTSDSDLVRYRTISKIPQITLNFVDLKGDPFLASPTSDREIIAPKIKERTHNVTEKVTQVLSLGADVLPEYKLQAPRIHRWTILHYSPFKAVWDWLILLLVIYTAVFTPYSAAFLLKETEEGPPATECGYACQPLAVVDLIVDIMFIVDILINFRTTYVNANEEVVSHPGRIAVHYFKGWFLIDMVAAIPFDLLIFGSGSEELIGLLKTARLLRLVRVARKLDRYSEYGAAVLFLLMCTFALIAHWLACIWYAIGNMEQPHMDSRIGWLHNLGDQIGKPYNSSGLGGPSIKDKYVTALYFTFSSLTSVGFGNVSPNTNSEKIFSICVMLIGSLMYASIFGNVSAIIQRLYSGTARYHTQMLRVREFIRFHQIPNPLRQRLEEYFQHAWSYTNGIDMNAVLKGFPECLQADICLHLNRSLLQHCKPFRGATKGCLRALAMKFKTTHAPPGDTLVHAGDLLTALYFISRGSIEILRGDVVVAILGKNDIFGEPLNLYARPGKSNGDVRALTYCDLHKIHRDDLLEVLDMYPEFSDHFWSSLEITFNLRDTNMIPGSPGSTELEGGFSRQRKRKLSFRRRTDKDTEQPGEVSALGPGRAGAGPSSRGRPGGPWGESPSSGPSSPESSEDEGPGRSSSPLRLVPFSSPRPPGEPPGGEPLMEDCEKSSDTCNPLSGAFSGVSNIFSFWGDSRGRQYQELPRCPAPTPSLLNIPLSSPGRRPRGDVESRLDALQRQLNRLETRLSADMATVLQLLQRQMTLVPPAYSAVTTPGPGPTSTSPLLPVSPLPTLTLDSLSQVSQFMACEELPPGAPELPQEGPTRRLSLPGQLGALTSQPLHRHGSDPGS
row,SMILES,"hERG current change (%, negative = inhibition) at 10uM [%]"
1,CCOC(=O)c1sc2nc(Cc3ccc(Cl)cc3)[nH]c(=S)c2c1C,17.4
2,CN(C)/C=C/C(=O)c1cccc(Cl)c1,0.271
3,COc1ccc(Cl)cc1NC(=O)C/C(C)=N/NC(=O)C(=O)NCc1ccccc1,6.82
4,Cc1ccc(SC(C)C(=O)NCc2cccnc2)cc1 (stereo not drawn),5.44
5,Nc1ccc(C(=O)N2CCN(S(=O)(=O)c3ccc4c(c3)OCCO4)CC2)cc1[N+](=O)[O-],-17.3
6,CN(CC(=O)Nc1ccc(Cl)c(C(F)(F)F)c1)C(=O)c1cn2ccccc2n1,-61.9
7,NNC(=O)C1=NOC(CNc2ncc(C(F)(F)F)cc2Cl)C1 (stereo not drawn),-4.21
8,COc1ccc(CC(=O)NCc2nnc(SCc3ccc([N+](=O)[O-])cc3)n2C)cc1,-63.6
9,Nc1ncn(-c2ncc(C(F)(F)F)cc2Cl)n1,11.6
10,O=C(CN1C(=O)S/C(=C\c2ccc(Cl)cc2)C1=O)NC1C=CS(=O)(=O)C1 (stereo not drawn),8.1
11,COc1cc(/C=C(\C#N)c2ccccn2)cc(OC)c1O,21
12,O=[N+]([O-])c1cccc(/C=N/n2c(-c3cccnc3)n[nH]c2=S)c1,9.54
13,O=C(c1ccc2c3n(nc2c1)-c1ccccc1CO3)N1CCCCC1,-4.84
14,C=CCNC(=O)C1CC(=O)N(c2ccc(OCC(=O)Nc3ccc(CC)cc3)cc2)C1 (stereo not drawn),14.6
15,CCN(CC)c1ccc(NC(=O)c2nc3nc(C)cc(C(F)F)n3n2)cc1,-37
16,CC(O)Cc1nsc(NC(=O)c2cccs2)n1 (stereo not drawn),10.1
17,CC(NS(=O)(=O)c1ccc(F)cc1)C(=O)NCc1ccncc1 (stereo not drawn),0.651
18,COc1ccc(NC(=O)c2cc(Br)ccc2Cl)c([N+](=O)[O-])c1,9.83
19,S=C(NCc1ccccc1)NNc1nc2ccccc2[nH]1,11.3
20,Cc1ccnc(NS(=O)(=O)c2cc(-c3cc(C)no3)ccc2C(C)C)c1,4.62
21,Cc1cc(C(=O)COC(=O)Cn2cnc3c2c(=O)n(C)c(=O)n3C)c(C)n1C,11.8
22,COC(=O)c1cc(-c2ccc3c(c2)OCO3)nc2ccccc12,13.1

row,SMILES,"hERG current change (%, negative = inhibition) at 10uM [%]"
1,CC(C)CNC(=S)NC1CC2CCC(C1)N2Cc1ccccc1 (stereo not drawn),-35.6
2,CCC(C)[C@H](NC(=O)[C@@H]1Cc2c([nH]c3ccccc23)C2c3ccccc3C(=O)N21)C(=O)N1CCC[C@@H]1C(=O)O (stereo partly drawn),0.753
3,O=C(Cc1cc(=O)oc2cc(O)ccc12)NCC1CCC(C(=O)O)CC1 (stereo not drawn),5.64
4,CCOCCCNC(=O)C1(O)c2ccccc2NC(=O)N1c1ccc(C)c(C)c1 (stereo not drawn),16.6
5,CCCS(=O)(=O)N1CCCC(C(=O)c2ccccc2OC)C1 (stereo not drawn),-2.75
6,CCCN1CCN(C(=O)CCNC(=O)Cn2cnc3ccccc3c2=O)CC1,15
7,O=C(Cn1c(=O)oc2ccc(Cl)cc21)Nc1ccon1,17.4
8,O=[N+]([O-])c1cc(Cl)ccc1NCCc1ccccn1,-16.8
9,Cc1noc(C)c1C(c1ccccc1)S(=O)(=O)c1ccccc1 (stereo not drawn),-0.632
10,Cc1cc(/C=C2\SC(=Nc3ccc(N4CCOCC4)cc3)N(C)C2=O)c(C)n1-c1cccnc1,11.3
11,CCCCn1c(N)c(N(CC(C)C)C(=O)c2ccc(S(=O)(=O)N3CCCCCC3)cc2)c(=O)[nH]c1=O,9.58
12,Cc1ccc(NC(=S)NCc2cccs2)cc1,-3.09
13,COC(=O)c1cc(=O)n(Cc2ccc3c(c2)OCO3)c(=Nc2ccccc2)s1,10.4
14,CC1CCN(C(=O)c2ccc(NS(=O)(=O)c3ccc4[nH]c(=O)[nH]c4c3)cc2)CC1,5.52
15,COc1ccc(-c2cc(C)no2)cc1S(=O)(=O)N1CCCN(Cc2ccccc2Cl)C1,-3.69
16,COc1ccccc1CNC(=O)c1ccc(CS(=O)Cc2cccc(Cl)c2)o1 (stereo not drawn),-17.1
17,O=c1[nH]c(C2CCN(S(=O)(=O)Cc3ccccc3)CC2)nc2c1nnn2Cc1ccccc1,-11.3
18,C/C(=N\NC(=S)NCc1ccccc1)c1ccc(C#N)cc1,19.9
19,Cc1nc(CNS(=O)(=O)c2ccc3ccccc3c2)cs1,-0.157
20,CCN(C(=O)COC(=O)c1ccco1)c1c(N)n(Cc2ccccc2)c(=O)[nH]c1=O,-0.805
21,CC(C)CC(=O)c1c[nH]c(C(=O)NCc2cccs2)c1,-4.66
22,O=C(CCCOc1ccc(Cl)cc1)N1CCOCC1,-5.67

row,SMILES,"hERG current change (%, negative = inhibition) at 10uM [%]"
1,CCC(C)c1ccc(NS(=O)(=O)c2c(C)[nH]c(=O)[nH]c2=O)cc1 (stereo not drawn),-0.529
2,C=CCn1c(=O)c(C(=O)NCc2ccc3c(c2)OCO3)c(O)c2cc(OC)c(OC)cc21,10.3
3,CC1(C)CC(=O)C2=C(C1)OC1=C(C(=O)CC(C)(C)C1)C2c1ccc(O)cc1O,-10.9
4,CC(=O)c1ccc(S(=O)(=O)N(C)CC(=O)NCC2CCCCC2)cc1,-6.21
5,O=C(OCC(=O)N1CCCc2ccccc21)c1cc(S(=O)(=O)N2CCOCC2)ccc1O,-40.3
6,Cc1ccc(C(=O)NNC2=NC(C)(C)Cc3ccccc32)cc1.Cl,-4.09
7,OC1C[N+]2(CCCCC2)C1.[Cl-],2.27
8,CN(c1cccc(NC(=O)c2ccccc2N(C)S(=O)(=O)c2ccccc2)c1)S(C)(=O)=O,12.9
9,O=C(COC(=O)c1cccc(O)c1)NC(=O)Cc1ccccc1,3.25
10,COc1ccccc1NS(=O)(=O)c1ccc(S(=O)(=O)N2CCOCC2)cc1,-10.8
11,OC(CNCCc1ccccc1)COc1ccc(OCC(O)CNCCc2ccccc2)cc1 (stereo not drawn),1.24
12,Clc1ccc(-c2nnn(Cc3nc4ccccc4s3)n2)cc1,3.73
13,COC(=O)c1cccc2c1-c1ccccc1/C2=N/O,-9.53
14,COc1ccccc1N1CCN(C(=O)c2cc(=O)c3ccc(C)cc3o2)CC1,-20.7
15,O=C(CC(=O)c1ccccc1)Nc1cc(C(F)(F)F)ccc1Cl,-13.1
16,Cc1nnc(NC(=O)Cn2nc(C)c3ccccc3c2=O)s1,16.2
17,COc1ccccc1NC(=O)Nc1ccc(C(N)=O)cc1,5.2
18,O=C(Nc1ccc(CN2CCOCC2)cc1)c1cc2ccccc2o1,-50.2
19,CC(C)Cc1ccc(C(C)C(N)=Nc2ccc(O)cc2)cc1.Cl (stereo not drawn),-80.2
20,O=C1NC[C@H](c2ccccc2)N(CCc2cc(C(F)(F)F)cc(C(F)(F)F)c2)C1=O,-23.4
21,COc1ccc2cc(C(=O)NCc3ccccc3)c(=Nc3ccc(C(=O)O)cc3)oc2c1,14.3
22,CCCn1c(=NC(=O)c2ccco2)c(C(=O)OCC)cc2c(=O)n3ccccc3nc21,-66.7

row,SMILES,"hERG current change (%, negative = inhibition) at 10uM [%]"
1,O=C1CC(N2CCC(c3nc4ccccc4o3)CC2)C(=O)N1c1ccc(Cl)c(C(F)(F)F)c1 (stereo not drawn),6.87
2,O=C(Nc1cccc(C(F)(F)F)c1)c1cnccn1,-2.3
3,O=C(CSc1nncn1-c1cccnc1)Nc1cccc([N+](=O)[O-])c1,4.83
4,Cc1nc2ccc(N3CCN(C)CC3)cc2nc1C,15.1
5,CC(=O)Nc1ccc(S(=O)(=O)N(C)CC(=O)OC(C)C(=O)N(C)Cc2ccccc2)cc1 (stereo not drawn),14.6
6,O=C(NCCN1C(=O)S/C(=C\c2ccc(OC(F)F)cc2)C1=O)C1=COCCO1,-32.5
7,COc1c(Br)cc2c(C)c(C(=O)O)oc2c1Br,27.7
8,CCCCC(=O)NC(c1ccc(N(C)C)cc1)c1ccc2cccnc2c1O (stereo not drawn),2.27
9,O=C(NCCC1=CCCCC1)C1CCN(S(=O)(=O)c2ccccc2)CC1,-2.85
10,Cn1c2c(c(=O)n(C)c1=O)C(c1cccc([N+](=O)[O-])c1)Nc1ccccc1O2 (stereo not drawn),-12.3
11,CCCCS(=O)(=O)N1CCCC(C(=O)Nc2ccc(Cl)cn2)C1 (stereo not drawn),-16.4
12,COc1ccc(NS(=O)(=O)c2ccc(-c3coc(C)n3)cc2)cc1,22.8
13,CC1=C(C(=O)Nc2ccccc2)C(c2cccs2)n2nnnc2N1 (stereo not drawn),4.46
14,O=S(=O)(NCc1ccccc1)c1ccc(NC(=S)NCc2ccco2)cc1,-5.02
15,Cc1cccc(C(=O)Nc2ccc(NC(=O)CN3CCOCC3)cc2)c1,4.46
16,Cc1nn(-c2ccccc2)c(C)c1/C=N/NC(=O)c1cc(-c2ccccc2)n[nH]1,-5.75
17,CCCn1c(SCC(=O)Nc2nnc(CC)s2)nnc1-c1ccncc1,13.7
18,COc1ccc(OC)c(C(C)NC(C)=O)c1 (stereo not drawn),13.3
19,Nc1ccccc1C(=O)NCc1ccco1,9.62
20,COc1cccc(NC(=O)Nc2nc(SC)ns2)c1,17.3
21,COc1cccc(/C(O)=C2\C(=O)C(=O)N(c3ccccn3)C2c2cccc(OC)c2OC)c1 (stereo not drawn),1.08
